# Reference: publication PMC4336329 (PLoS ONE, 2015)
# Hit rate of the full screen: of about 310,000 compounds, about 2,200 (0.71%) showed an effect of 50% or more. Effects have a minus sign here. The list shows a part of the results.
# Molecular target: human ether-à-go-go-related gene (hERG) potassium channel (human, UniProt Q12809)
# Test: primary screen, population patch clamp on CHO cells stably expressing hERG
# human ether-à-go-go-related gene (hERG) potassium channel, sequence (Q12809 whole entry, looked up): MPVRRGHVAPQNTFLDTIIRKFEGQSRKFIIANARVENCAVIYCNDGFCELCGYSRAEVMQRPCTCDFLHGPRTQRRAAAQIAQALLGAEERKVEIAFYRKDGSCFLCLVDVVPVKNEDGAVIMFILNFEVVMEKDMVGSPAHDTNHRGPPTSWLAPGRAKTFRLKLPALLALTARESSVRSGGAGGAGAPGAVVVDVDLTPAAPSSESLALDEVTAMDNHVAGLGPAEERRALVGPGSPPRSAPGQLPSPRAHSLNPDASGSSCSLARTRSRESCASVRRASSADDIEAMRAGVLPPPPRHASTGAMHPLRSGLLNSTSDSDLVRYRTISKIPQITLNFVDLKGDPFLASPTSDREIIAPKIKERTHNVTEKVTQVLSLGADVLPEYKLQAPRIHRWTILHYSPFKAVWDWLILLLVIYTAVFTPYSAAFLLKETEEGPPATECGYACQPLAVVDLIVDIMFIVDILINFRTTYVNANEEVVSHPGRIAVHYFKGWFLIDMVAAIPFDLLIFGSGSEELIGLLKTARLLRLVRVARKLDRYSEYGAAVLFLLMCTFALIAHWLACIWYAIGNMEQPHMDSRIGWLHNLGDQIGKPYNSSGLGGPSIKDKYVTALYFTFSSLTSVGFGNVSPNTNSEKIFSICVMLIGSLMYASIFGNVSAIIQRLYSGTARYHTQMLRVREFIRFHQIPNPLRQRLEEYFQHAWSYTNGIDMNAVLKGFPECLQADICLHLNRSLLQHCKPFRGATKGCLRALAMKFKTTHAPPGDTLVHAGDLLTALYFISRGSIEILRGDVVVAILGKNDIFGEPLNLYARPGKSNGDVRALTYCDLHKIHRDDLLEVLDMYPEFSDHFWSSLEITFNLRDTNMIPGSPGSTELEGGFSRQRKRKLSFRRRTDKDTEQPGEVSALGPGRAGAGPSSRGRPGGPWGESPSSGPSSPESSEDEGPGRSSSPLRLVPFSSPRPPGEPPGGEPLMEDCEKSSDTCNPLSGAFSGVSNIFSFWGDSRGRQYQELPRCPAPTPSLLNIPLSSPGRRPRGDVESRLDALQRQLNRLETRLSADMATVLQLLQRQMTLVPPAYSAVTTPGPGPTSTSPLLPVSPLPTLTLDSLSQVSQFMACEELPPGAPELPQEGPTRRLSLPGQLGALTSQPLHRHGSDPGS
row,SMILES,"hERG current change (%, negative = inhibition) at 1uM [%]"
1,NC(=O)N1c2ccccc2CC(=O)c2ccccc21,1.72
2,COc1cccc(OCc2nnc(SC)n2C)c1,3.9
3,COc1ccc(CCNC(=O)c2ccc(Br)cc2)cc1,12.3
4,c1ccc2[nH]c(CSc3nc4ccccc4s3)nc2c1,-3.7
5,COC(=O)c1cc(Cl)c(NC(=O)c2ccco2)cc1OC,14.5
6,Cc1nn(-c2ccccc2)c(N)c1C(c1ccccc1)c1c(C)nn(-c2ccccc2)c1N,6.85
7,COc1ccc(CC(=O)OCn2nnc3ccccc3c2=O)cc1,2.32
8,O=C(Nc1ccc(OC(F)(F)F)cc1)C1CCCN(S(=O)(=O)c2cnc[nH]2)C1 (stereo not drawn),9.5
9,Cn1cc(CCCC(=O)NCc2ccccc2)c2ccccc21,18.4
10,O=C(N/N=C/c1ccco1)c1cccc(N2Cc3ccccc3C2)c1,8.43
11,CCc1cccc(C)c1NC(=O)C1CN(S(=O)(=O)c2ccccc2)CCN1S(=O)(=O)c1ccccc1 (stereo not drawn),-3.57
12,COc1ccc(OC)c(N(CC(=O)NCCSCc2ccco2)S(=O)(=O)c2ccccc2)c1,-12.2
13,CC(=O)N1N=C(c2ccncc2)CC1c1ccccc1O (stereo not drawn),15.6
14,CSCCC(NC(N)=O)C(=O)Nc1ccc(F)c(Cl)c1 (stereo not drawn),12.2
15,S=C(c1ccc(-c2ccc(Br)cc2)o1)N1CCCCC1,15.2
16,O=C(Nc1ccc(C2CC2(Cl)Cl)cc1)c1ccccc1Br (stereo not drawn),15.1
17,CCN(CC)C(=O)N(CC)Cc1ccccc1,5.22
18,COc1ccccc1/C=N/N1CCN(c2ccc(Cl)cc2)CC1,10.7
19,Cc1cccc(OCc2nnc(SCC(=O)N(c3ccccc3)C3CCS(=O)(=O)C3)o2)c1 (stereo not drawn),0.165
20,O=C(C1CC1(c1ccccc1)c1ccccc1)N1CCOCC1 (stereo not drawn),2.96
21,Cc1noc(C)c1C(=O)N1CCc2ccccc2C1,10.2
22,COc1cccc(C2c3[nH]c4ccccc4c3CCN2Cc2cccn2-c2ncccn2)c1 (stereo not drawn),-37
23,CSCCC(NC(=O)c1ccccc1Cl)C(=O)N1CCCCC1 (stereo not drawn),9.86

row,SMILES,"hERG current change (%, negative = inhibition) at 1uM [%]"
1,CCOC(=O)c1nc(N)sc1C(=O)OCC,6.65
2,COc1ccc(NC(=S)Nc2ccc(OCc3ccccc3)cc2)cc1OC,11.1
3,COc1ccc(C2=NOC3(CC(=O)N(c4ccc(F)cc4)C3=O)C2)cc1 (stereo not drawn),12.4
4,O=C(NCc1ccccn1)c1cn(-c2ccccc2)nc1-c1ccc(Cl)cc1,10.1
5,CC1CCc2nc3ccc(S(=O)(=O)N4CCC(C(=O)N5CCCCC5)CC4)cc3c(C(=O)O)c2C1 (stereo not drawn),9.21
6,CCCOc1ccc(C(=O)OCCN2CCCCC2)c(O)c1.Cl,-3.03
7,CC(NC(=O)c1cccs1)C(=O)NC1=NCCS1 (stereo not drawn),6.35
8,CCC(C(=O)OC(C)C)c1ccc2ccccc2c1 (stereo not drawn),9.68
9,COc1cccc(Nc2ncnc3c2cnn3-c2cccc(C)c2)c1,1.57
10,CC(C)N(CCn1c(=S)[nH]c2ccccc2c1=O)C(C)C,-14
11,COc1ccc(OC)c(NC(=O)[C@@]2(CC(=O)O)CC(/C=C/c3ccccc3)=NO2)c1,15.9
12,CCOc1cc(C=C2C(=O)NC(=O)NC2=O)ccc1OS(=O)(=O)c1ccccc1,-0.821
13,COc1cccc(C(=O)Nc2ccc(NC(=O)C3C4C=CC(C4)C3C(=O)O)cc2)c1 (stereo not drawn),15.4
14,O=C(c1ccccn1)N1CCCC(N2CCN(Cc3ccc4c(c3)OCO4)CC2)C1 (stereo not drawn),0.78
15,COC(=O)CNC(=O)C12CC3CC(C1)CC(c1ccc(C)cc1)(C3)C2,16.3
16,Cc1ccc(OCCC(=O)OCC(=O)Nc2cc(C)cc(C)c2)cc1,19.2
17,COc1ccccc1NS(=O)(=O)c1cc(NC(=O)Nc2cccc(C)c2)ccc1N1CCCCC1,8.08
18,Cc1cccc(Nc2ccccc2C(=O)O)c1C,5.1
19,Cc1ccc(C(=O)Nc2ccccc2Sc2ccccc2)cc1,11.1
20,O=C1OCC(CO)(CO)N=C1NNc1ccc(Cl)c(Cl)c1,11.4
21,C/C(=N\Nc1ccc([N+](=O)[O-])cc1)c1ccc2c(c1)OCO2,2.1
22,NS(=O)(=O)c1ccc(N/N=C/C=C/c2ccccc2[N+](=O)[O-])cc1,9.35
23,COCCN1C(=O)Cc2c1nc(N)c1c(N)nc(N3CCN(c4ccc(F)cc4)CC3)c(C#N)c21,7.15

row,SMILES,"hERG current change (%, negative = inhibition) at 1uM [%]"
1,Cc1occc1-c1nnc(SCC(=O)c2c(N)n(C3CC3)c(=O)[nH]c2=O)n1C,2.57
2,COc1ccc(C2C(C(=O)NCc3ccco3)CCC(=O)N2c2ccc(OC)cc2)cc1 (stereo not drawn),14.8
3,C/C(=N\N=c1/sc2ccccc2n1C)c1ccccn1,6.92
4,Cl.N=c1n(CCO)c2ccccc2n1CCN1CCCCC1,10.9
5,COc1ccccc1-n1c(SCC(=O)N2CCOCC2)nc(O)cc1=O,-13.9
6,O=c1cc(-c2ccc(O)cc2)oc2c(C3O[C@H](CO)[C@@H](O)[C@H](O)[C@H]3O)c(O)cc(O)c12 (stereo partly drawn),9.69
7,O=C(Oc1cccc(Nc2ncnc3ccccc23)c1)c1cccnc1,8.31
8,Fc1ccc(NC(=S)N2CCCC2)cc1,6.91
9,CC(C)N1CC(C(=O)Nc2ccc(Cl)c(Cl)c2)CC1=O (stereo not drawn),5.01
10,Cc1ccc(-n2ccnc2SCC(=O)N(CC(C)C)C2CCS(=O)(=O)C2)c(C)c1 (stereo not drawn),-3.07
11,COc1ccc(NC(=O)C(C)N2c3cccc4cccc(c34)S2(=O)=O)cc1OC (stereo not drawn),12.9
12,O=C(Cn1c(=O)n(CC2CCCO2)c(=O)c2ccccc21)c1ccc(Cl)c(Cl)c1 (stereo not drawn),9.74
13,NC(=O)c1ccccc1NC(=O)CSc1nc2ccccc2c(=O)[nH]1,18.2
14,CCCC(/C=C/c1ccc(OC(C)=O)cc1)=C1/c2ccccc2C(=O)N1c1ccccc1,11.3
15,Cc1cccc(C)c1NC(=O)C1c2cccc[n+]2CC(=O)N1Cc1cccs1.[I-] (stereo not drawn),9.44
16,CCCCNC(=O)C1c2cc(OC)c(OC)cc2C(=O)N(C)C1c1ccc(OC)cc1 (stereo not drawn),8.09
17,COc1ccccc1/C=C/C=N/n1c(-c2ccc(F)cc2)n[nH]c1=S,8.39
18,O=C(NOC(=O)c1ccccc1Cl)c1cccs1,1.96
19,Oc1c(C=Nc2ccccc2)sc(=S)n1Cc1ccccc1,8.21
20,COc1ccccc1C(=O)Nc1cc2cc(Br)ccc2oc1=O,10.1
21,CC(NC(=O)c1ccc(Cl)cc1Cl)C(c1ccccc1)N1CCOCC1 (stereo not drawn),12.9
22,O=C(O)c1cc(-c2ccc(N3CCOCC3)cc2)nn1-c1ccc(F)cc1,5.3
23,COc1ccc(NC(=O)Cn2nnc(C(=O)NCc3cccs3)c2N)cc1Cl,-10.6

row,SMILES,"hERG current change (%, negative = inhibition) at 1uM [%]"
1,COc1ccc(CNC(=O)Cc2ccc(-c3ccccc3)cc2)cc1OC,14.3
2,Clc1ccc(-c2nc3ncccn3c2Nc2ccc3c(c2)OCO3)cc1,14.8
3,Cn1nc(-c2ccc(Cl)cc2)cc1NC(=O)CC(C)(C)CC(=O)O,8.09
4,COc1ccc(N(CC(=O)Nc2nccs2)S(=O)(=O)c2c(C)[nH]c(=O)[nH]c2=O)cc1,12.1
5,O=C(NC1CC2CCCC(C1)N2C(=O)Nc1cccc(F)c1)C1CC1 (stereo not drawn),21.6
6,O=S1(=O)C=C(N2CCOCC2)c2ccccc21,18.4
7,CCN1CCN(CCC(=O)Nc2cccc(C)c2)CC1.Cl,9.56
8,COC(=O)c1ccc(C(=O)OC)c(NC(=O)CSCc2ccc(Cl)cc2)c1,-1.69
9,Cc1ccc(Cn2nc(C)c(C=O)c2Cl)cc1,7.51
10,Cc1cc(C)c2c(ccc3cccc[n+]32)c1.[O-][Cl+3]([O-])([O-])[O-],6.35
11,CCOc1ccc(NC(=O)COc2ccc(OC)cc2)cc1,13.4
12,Cc1ccc(C2(C)NC(=O)N(CC(=O)NCCC3=CCCCC3)C2=O)cc1 (stereo not drawn),8.9
13,CCc1cc2c(=O)n(CCC(C)C)c(=S)[nH]c2s1,12.1
14,CCN(CC)c1ccc(NC(=O)COC(=O)CCC(=O)c2ccc(F)cc2)cc1,6.69
15,CCCCOc1ccccc1N1CCN(CCCN2C(=O)C3CCCN3C2=O)CC1.Cl (stereo not drawn),-31.1
16,O=c1c2ccccc2nc2n1C(CSc1ccc(Cl)cc1)CN2 (stereo not drawn),-1.65
17,CCC(C)(C)C1CCC(NC(=O)N2CCN(c3ccccc3O)CC2)CC1 (stereo not drawn),9.74
18,CC(NC(=O)Nn1cnnc1)(C(F)(F)F)C(F)(F)F,15.6
19,Cn1cc(C(=O)NCc2ccccc2)c2ccccc21,3.35
20,Cn1ncc(Br)c1C(=O)N1CCCCCC1,13.6
21,CNc1oc(-c2cccs2)nc1S(=O)(=O)c1ccccc1,-4.28
